Measurements from PubChem BioAssay AID624417 (National Center for Advancing Translational Sciences (NCATS), 2012).
The whole screen tested about 410,000 compounds, of which about 6,400 (1.6%) were called active. Inconclusive means that the source gave no clear call. Such entries were picked first, then a sample of the others. Calls follow the shape of the dose curve; as a rule, active = well fitted inhibition curve with a large enough effect; inconclusive = small, poorly fitted or top-dose-only effect; inactive = no such curve, though single readings can be large or run the other way. Potencies of inconclusive entries are left out as doubtful fits.

biological target: Glucagon-like peptide 1 receptor (Homo sapiens) (UniProt P43220); assay: qHTS of GLP-1 Receptor Inverse Agonists (Inhibition Mode); conditions: HEK293 GLP-1R CRE-luciferase, luminescence, 24 h, GLP-1R form is constitutively active; activity change, negative = inhibition: at 38.3 µM (top of the series) unless noted; also: nearly all actives have a fitted effect of over 55% in size
Sequence of UniProt P43220 (P43220 whole entry, looked up): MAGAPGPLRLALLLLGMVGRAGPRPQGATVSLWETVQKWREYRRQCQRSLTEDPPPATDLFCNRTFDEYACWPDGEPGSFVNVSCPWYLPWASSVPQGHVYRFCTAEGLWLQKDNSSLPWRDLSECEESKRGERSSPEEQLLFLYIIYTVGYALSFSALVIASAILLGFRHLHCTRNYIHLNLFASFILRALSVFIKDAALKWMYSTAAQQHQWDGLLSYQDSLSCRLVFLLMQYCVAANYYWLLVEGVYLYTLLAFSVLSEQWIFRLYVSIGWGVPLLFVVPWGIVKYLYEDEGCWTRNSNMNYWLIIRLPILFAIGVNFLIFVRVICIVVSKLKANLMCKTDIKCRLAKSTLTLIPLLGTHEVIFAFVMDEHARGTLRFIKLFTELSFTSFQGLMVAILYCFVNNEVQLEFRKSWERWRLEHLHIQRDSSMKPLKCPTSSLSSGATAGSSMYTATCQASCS
Method in brief: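 Luminescence readout: a drop in cAMP-driven luciferase signal flags inverse agonism at a constitutively active GLP-1R stably expressed in HEK293. Compound exposure lasted 24 hr at 37 deg C, 5% CO2.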
% is scaled to controls: 0 for no effect and ±100 for the full control effect; potency is read from the fitted curve at half-maximal effect; tags tell the direction and shape of the fitted curve.

SMILES	Potency	activity change, negative = inhibition
O=C(CN1CCN(S(=O)(=O)c2ccccc2Cl)CC1)NCC1(N2CCOCC2)CCCCC1	inconclusive [inhibitor, single point]	
CCNc1cc2n(c(=O)n1)CCc1cc(OC)c(OC)cc1-2		inactive: 124%
N/C(=N\OC(=O)c1ccccc1)C(Cc1ccccc1)C(=O)NOC(=O)c1ccccc1 (centres undefined)	inconclusive [inhibitor, single point]	
CCOC(=O)C1=C(CS(=O)(=O)c2ccc(C(C)(C)C)cc2)NC(=O)NC1c1cccc(OC)c1 (centres undefined)	inconclusive [inhibitor, single point]	
COc1ccc(S(=O)(=O)N(Cc2ccccc2)Cc2nc(-c3ccccc3)no2)cc1	inconclusive [inhibitor, partial curve, poor fit]	
COc1ccccc1/C=C\C=N\NC(=O)c1ccco1		inactive: 24.9%
Cc1[nH]c2ccccc2c1/C=C/C(=O)c1ccncc1	inconclusive [inhibitor, partial curve, poor fit]	
CCN(CC)S(=O)(=O)c1ccc(NCCCn2ccnc2)c([N+](=O)[O-])c1	inconclusive [inhibitor, partial curve, poor fit]	
COc1ccccc1NC(=S)N(CCN1CCOCC1)Cc1ccccc1F		inactive: -13.4%
O=C1NC[C@@H](CCCCN2C[C@H](Cc3ccc(O)cc3)N(CCc3ccccc3)C(=O)C2=O)N(Cc2ccccc2)C1=O		inactive: 20.7%
CCN(CC(=O)Nc1ccccc1C(F)(F)F)C(=O)c1ccccc1Cc1ccccc1	inconclusive [inhibitor, single point]	
CCOc1ccc(C(=O)Nc2cccc(NC(=O)c3cccs3)c2)cc1[N+](=O)[O-]	inconclusive [inhibitor, single point]	
CN(c1ccccc1)S(=O)(=O)c1ccc(Cl)c(C(=O)OCC(=O)NCc2ccco2)c1	inconclusive [inhibitor, partial curve]	
O=C(CSc1nc2ccccc2c(=O)n1CCCN1CCOCC1)Nc1ccc(F)c(Cl)c1	inconclusive [inhibitor, single point]	
COc1cccc2nc3cc(C)c(C)cc3nc12	inconclusive [inhibitor, partial curve]	
O=C(NC1CCc2ccccc21)c1cc(COc2c(F)cccc2F)on1 (centres undefined)	inconclusive [inhibitor, single point]	
CCOC(=O)C1=C(C)c2ccccc2N(C(=O)OC)C1(C)C(=O)OCC (centres undefined)		inactive: 9.59%
CC(=O)c1ccc(S(=O)(=O)N2CCN(C(=O)c3ccc(COc4ccccc4)o3)CC2)cc1	inconclusive [inhibitor, single point]	
CCOc1cnc(-c2c(-c3ccccc3Cl)noc2C)o1	inconclusive [inhibitor, partial curve, poor fit]	
CCCCSc1nc(C)cc(C)c1S(=O)(=O)c1ccccc1C	inconclusive [inhibitor, single point]	

SMILES	Potency	activity change, negative = inhibition
Cc1ccc(S(=O)(=O)N2CCOC23CCN(C(=O)c2ccc(Cl)cc2Cl)CC3)cc1	inconclusive [inhibitor, partial curve, poor fit]	
CCOc1ccccc1C(=O)Nc1cc(OC)ccc1OC	inconclusive [inhibitor, single point]	
COc1ccc(C=CC(=O)c2c(OC)cc(OC)c(OC)c2O)cc1	inconclusive [inhibitor, single point]	
Cc1ccc(C)c2[nH]c(=O)c(CN(Cc3ccco3)C(=O)Nc3ccccc3)cc12	inconclusive [inhibitor, single point]	
CCOc1ccccc1N(C)C(=O)c1cc(S(=O)(=O)NCCc2ccc(Cl)cc2)ccc1F	inconclusive [inhibitor, partial curve, poor fit]	
COc1cccc(CC(=O)Nc2nc3ccccc3[nH]2)c1	inconclusive [inhibitor, single point]	
CCOC(=O)N1CCN(S(=O)(=O)c2ccc(C(=O)NNc3nc4c(C)cccc4s3)cc2)CC1	inconclusive [inhibitor, partial curve, poor fit]	
COc1cc(C(=O)c2cocc2C(=O)c2ccc3c(c2)OCO3)cc(OC)c1OC		inconclusive: -54.2% [inhibitor]
C#CCOc1nc(C)cc(C)c1S(=O)(=O)c1ccccc1C	inconclusive [inhibitor, partial curve, poor fit]	
O=C(CN(Cc1cccs1)S(=O)(=O)c1ccc(S(=O)(=O)NC2CCCCC2)cc1)Nc1ccccc1	inconclusive [inhibitor, partial curve, poor fit]	
N#C/C(=C/c1ccc(-c2ccccc2)o1)c1nc(-c2cccs2)cs1		inactive: 29.5%
COc1ccc2cc(S(=O)(=O)NC3CC(C)(C)NC(C)(C)C3)ccc2c1	inconclusive [inhibitor, partial curve, poor fit]	
Cc1ccc2c(c1)N(C(=O)CCC(=O)Nc1ccc(F)cc1F)CC(C)O2 (centres undefined)	inconclusive [inhibitor, single point]	
Oc1cccc(NC(=S)Nc2ccc(SC(F)F)cc2)c1	inconclusive [inhibitor, single point]	
COc1ccc(S(=O)(=O)NCC(c2cccnc2)N2CCN(c3ccccc3OC)CC2)cc1C (centres undefined)	inconclusive [inhibitor, single point]	
CC(=O)Oc1ccccc1Cn1c(C)c(C(=O)NCc2ccc(Cl)c(Cl)c2)sc1=O	inconclusive [inhibitor, single point]	
CC(=O)N1CCN(c2ccc(NC(=O)c3ccc([N+](=O)[O-])cc3Cl)cc2)CC1		inactive: 32.9%
CCc1ccc(N(CC(=O)NCCc2ccccc2)C(=O)CCC(=O)Nc2ccccn2)cc1	inconclusive [inhibitor, single point]	
CN(C)c1ccc(-c2csc(C(O)c3ccc(F)cc3)n2)cc1 (centres undefined)	inconclusive [inhibitor, single point]	
